# Reference: a collection of fitness landscapes (doi:10.1016/j.celrep.2020.107928)
# Whole data set: some 81,000 sequences, median “one-hybrid fitness for binding parS DNA” near -0.17, cut for the highest 2% near 0.51. Some of the results follow.
# B1: Caulobacter ParB omega fusion; a variant is named by its letters at X, in order, B8GW30 (parent)
# chain: MESVVVGEPGMSEGRRGLGRGLSALLGEVDAAPAQAPGEQLGGSREAPIEILQRNPDQPRRTFREEDLEDLSNSIREKGVLQPILVRPSPDTAGEYQIVAGERAWRAAQRAGLKTVPIMVRELDDLAVLEIGIIENVQRADLNVLEEALSYKVLMEKFERTQENIAQTIGKSXSHVANXMRLLXLPDEVQSYLVSGELTAXHARAIAAAADPVALAKQIIEGGLSVRETEALARKAPNLSAGKSKGGRPPRVKDTDTQALESDLSSVLGLDVSIDHRGSTGTLTITYATLEQLDDLCNRLTRGI
# Variants of: B1
# Assay: one-hybrid fitness for binding parS DNA (scaled: cognate 1, non-cognate 0); higher = stronger binding
# Conditions: with parS DNA site
# In short: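 Caulobacter ParB libraries with four specificity codons randomised were screened by bacterial one-hybrid selection in the E. coli USO strain, using a HIS3 reporter whose site lies 19 bp from the promoter. Selection ran for 48 hours at 37°C on M9 lacking histidine, with 0.1 mM IPTG and 5 mM 3-AT. Plasmids were Illumina-sequenced before and after selection, three replicate libraries were pooled, and variants with under 10 reads were dropped. Fitness is the log change in each variant's read ratio to wild type, rescaled against the cognate and non-cognate sites.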
row,Variant,one-hybrid fitness for binding parS DNA
1,HLNS,≤ 0.2
2,MTGC,≤ 0.2
3,AHCS,≤ 0.2
4,MSSR,≤ 0.2
5,IQTT,≤ 0.2
6,PLSD,≤ 0.2
7,KSLG,≤ 0.2
8,VTNS,≤ 0.2
9,PCSS,≤ 0.2
10,RVMN,0.388
11,APAW,≤ 0.2
12,KLKC,≤ 0.2
13,EISW,≤ 0.2
14,DWSA,≤ 0.2
15,YAKW,≤ 0.2
16,QYDG,≤ 0.2
17,EGYA,≤ 0.2
18,HGYS,≤ 0.2
19,AFYC,≤ 0.2
20,YTQT,≤ 0.2
21,EVHT,≤ 0.2
22,DQES,≤ 0.2
23,HTQA,≤ 0.2
24,QAKR,≤ 0.2

row,Variant,one-hybrid fitness for binding parS DNA
1,WTQA,≤ 0.2
2,TVRH,≤ 0.2
3,IQNY,≤ 0.2
4,NNTV,≤ 0.2
5,LVPN,≤ 0.2
6,QTCE,≤ 0.2
7,AAMR,≤ 0.2
8,LLDL,≤ 0.2
9,QWHW,≤ 0.2
10,PTRW,≤ 0.2
11,HYDE,≤ 0.2
12,CDVS,≤ 0.2
13,YRRS,0.382
14,TEHW,≤ 0.2
15,IRYV,≤ 0.2
16,RIYK,≤ 0.2
17,AHGI,≤ 0.2
18,RLNQ,≤ 0.2
19,YRKG,0.26
20,WAAL,≤ 0.2
21,HPRD,≤ 0.2
22,SSMM,≤ 0.2
23,RWRF,≤ 0.2
24,GSDK,≤ 0.2

row,Variant,one-hybrid fitness for binding parS DNA
1,WPPT,≤ 0.2
2,PPVC,≤ 0.2
3,TYNY,≤ 0.2
4,TPHV,≤ 0.2
5,TRAH,≤ 0.2
6,ALTI,≤ 0.2
7,RRQI,≤ 0.2
8,IDNI,≤ 0.2
9,GLDR,≤ 0.2
10,WALL,≤ 0.2
11,WWNG,≤ 0.2
12,DPCY,≤ 0.2
13,RQGG,0.945
14,MSFG,≤ 0.2
15,CWKS,≤ 0.2
16,CDFS,≤ 0.2
17,GDPC,0.239
18,QRIQ,≤ 0.2
19,QAKI,≤ 0.2
20,RAMT,0.878
21,GQSS,≤ 0.2
22,SKTL,≤ 0.2
23,HWSS,≤ 0.2
24,MMPR,≤ 0.2

row,Variant,one-hybrid fitness for binding parS DNA
1,IRSC,≤ 0.2
2,PPMC,≤ 0.2
3,YCDF,0.267
4,QTCM,≤ 0.2
5,TYSH,≤ 0.2
6,YWKG,≤ 0.2
7,FAEV,≤ 0.2
8,VNFY,≤ 0.2
9,KECS,≤ 0.2
10,IDRR,≤ 0.2
11,KELS,≤ 0.2
12,TVAR,≤ 0.2
13,TEHH,≤ 0.2
14,SVAE,≤ 0.2
15,PLEA,≤ 0.2
16,PYAP,≤ 0.2
17,MPSM,≤ 0.2
18,TIST,≤ 0.2
19,VHSC,≤ 0.2
20,SNTQ,≤ 0.2
21,RRLP,≤ 0.2
22,RHHK,≤ 0.2
23,LVEH,≤ 0.2
24,STIP,≤ 0.2

row,Variant,one-hybrid fitness for binding parS DNA
1,DFTC,≤ 0.2
2,HKQT,≤ 0.2
3,QSEM,≤ 0.2
4,LLLT,≤ 0.2
5,ADGF,≤ 0.2
6,EQLS,0.217
7,AQPF,≤ 0.2
8,SDKN,≤ 0.2
9,LMHL,≤ 0.2
10,NGLS,≤ 0.2
11,QCAK,≤ 0.2
12,IKIS,≤ 0.2
13,LEVR,≤ 0.2
14,PSRR,≤ 0.2
15,RYCE,≤ 0.2
16,LTLR,≤ 0.2
17,HFYS,≤ 0.2
18,FSTW,≤ 0.2
19,INGR,≤ 0.2
20,VHNV,≤ 0.2
21,QQGN,≤ 0.2
22,IMSG,≤ 0.2
23,FCSS,≤ 0.2
24,HCDS,≤ 0.2

row,Variant,one-hybrid fitness for binding parS DNA
1,TKVL,≤ 0.2
2,QEGH,≤ 0.2
3,TRFY,≤ 0.2
4,SAQW,≤ 0.2
5,RYME,≤ 0.2
6,QTCH,≤ 0.2
7,ALGR,≤ 0.2
8,LVTI,≤ 0.2
9,VLES,≤ 0.2
10,YPTL,≤ 0.2
11,PVHP,≤ 0.2
12,LTAQ,≤ 0.2
13,VVTA,≤ 0.2
14,TAGL,≤ 0.2
15,PWKG,≤ 0.2
16,QARR,≤ 0.2
17,HKGM,≤ 0.2
18,ITSD,≤ 0.2
19,QYCS,≤ 0.2
20,NSPC,≤ 0.2
21,PCYT,≤ 0.2
22,NQRK,≤ 0.2
23,QCPK,≤ 0.2
24,NKMS,≤ 0.2

row,Variant,one-hybrid fitness for binding parS DNA
1,DSNY,≤ 0.2
2,QMFG,≤ 0.2
3,PIKN,≤ 0.2
4,RMAY,0.436
5,GSRP,≤ 0.2
6,ACNH,≤ 0.2
7,QYFF,≤ 0.2
8,SGRR,≤ 0.2
9,THTK,≤ 0.2
10,QLTL,≤ 0.2
11,IWTR,≤ 0.2
12,PLGG,≤ 0.2
13,LPDW,≤ 0.2
14,IPTP,≤ 0.2
15,PWFG,≤ 0.2
16,IAIR,≤ 0.2
17,VTKD,≤ 0.2
18,LIGR,≤ 0.2
19,VSNS,≤ 0.2
20,TNMH,≤ 0.2
21,PCAR,≤ 0.2
22,TLAS,≤ 0.2
23,PLYI,≤ 0.2
24,FTRF,≤ 0.2

row,Variant,one-hybrid fitness for binding parS DNA
1,PILK,≤ 0.2
2,VTAM,≤ 0.2
3,IISG,≤ 0.2
4,LAEG,≤ 0.2
5,SIHF,≤ 0.2
6,GSFE,≤ 0.2
7,ELAM,≤ 0.2
8,RAWQ,≤ 0.2
9,LMYI,≤ 0.2
10,SKSE,≤ 0.2
11,YWNN,≤ 0.2
12,TCMS,≤ 0.2
13,YPPF,≤ 0.2
14,DALF,≤ 0.2
15,LNVG,≤ 0.2
16,HWTL,≤ 0.2
17,HHRW,≤ 0.2
18,CTMT,≤ 0.2
19,VLRT,≤ 0.2
20,HHWV,≤ 0.2
21,VFNL,≤ 0.2
22,HRHA,≤ 0.2
23,WNAK,≤ 0.2
24,DVTV,≤ 0.2

row,Variant,one-hybrid fitness for binding parS DNA
1,DWSY,≤ 0.2
2,CFRF,≤ 0.2
3,SSQC,≤ 0.2
4,TVYG,≤ 0.2
5,GYQS,≤ 0.2
6,WIKW,≤ 0.2
7,VLWE,≤ 0.2
8,EKNS,≤ 0.2
9,IVCR,≤ 0.2
10,EVGP,≤ 0.2
11,SKES,≤ 0.2
12,EAGR,≤ 0.2
13,YKEV,≤ 0.2
14,CRFA,≤ 0.2
15,RNDY,0.256
16,ANLM,≤ 0.2
17,QHRP,≤ 0.2
18,MCFG,≤ 0.2
19,PGDR,≤ 0.2
20,YSNA,≤ 0.2
21,YRNE,≤ 0.2
22,LKHI,≤ 0.2
23,SCDF,≤ 0.2
24,EPFI,≤ 0.2

row,Variant,one-hybrid fitness for binding parS DNA
1,YALL,≤ 0.2
2,ILTH,≤ 0.2
3,RHDA,0.545
4,ADKP,0.287
5,SQFL,≤ 0.2
6,NGTN,≤ 0.2
7,YPIF,≤ 0.2
8,NPPI,≤ 0.2
9,PLRD,≤ 0.2
10,SFRS,≤ 0.2
11,LCCR,≤ 0.2
12,DEGG,≤ 0.2
13,RLDT,0.806
14,LSAV,≤ 0.2
15,PKWV,≤ 0.2
16,ELQR,≤ 0.2
17,VAHR,≤ 0.2
18,HYFT,≤ 0.2
19,HMRC,≤ 0.2
20,LQGF,≤ 0.2
21,RTKA,0.808
22,PHNI,≤ 0.2
23,VRCD,≤ 0.2
24,PNNG,≤ 0.2

row,Variant,one-hybrid fitness for binding parS DNA
1,LSTW,≤ 0.2
2,AYFG,≤ 0.2
3,QTGR,≤ 0.2
4,MVTE,≤ 0.2
5,PWHD,≤ 0.2
6,HYHF,≤ 0.2
7,CFHR,≤ 0.2
8,CSTS,≤ 0.2
9,TGDS,≤ 0.2
10,DQFS,≤ 0.2
11,RIVS,1.01
12,KNSG,≤ 0.2
13,RCEW,≤ 0.2
14,IHQR,≤ 0.2
15,EQRK,≤ 0.2
16,KLTY,≤ 0.2
17,IRKL,≤ 0.2
18,GFFS,≤ 0.2
19,IQAR,≤ 0.2
20,DVSW,≤ 0.2
21,YSSY,≤ 0.2
22,FRSS,≤ 0.2
23,HTQG,≤ 0.2
24,CPEM,≤ 0.2

row,Variant,one-hybrid fitness for binding parS DNA
1,RTCN,0.451
2,IEYS,≤ 0.2
3,RVQD,≤ 0.2
4,TRHA,≤ 0.2
5,SMKS,≤ 0.2
6,YAIC,≤ 0.2
7,RRWF,≤ 0.2
8,VRGY,≤ 0.2
9,RFFD,≤ 0.2
10,THSY,≤ 0.2
11,LTFM,≤ 0.2
12,ALMG,≤ 0.2
13,PDQH,≤ 0.2
14,PQNP,≤ 0.2
15,AATT,≤ 0.2
16,AHDF,≤ 0.2
17,DSSV,≤ 0.2
18,LHST,≤ 0.2
19,HVPC,≤ 0.2
20,YQKN,≤ 0.2
21,PSNR,≤ 0.2
22,DMKS,≤ 0.2
23,DTQK,≤ 0.2
24,NRKT,≤ 0.2

row,Variant,one-hybrid fitness for binding parS DNA
1,MPTI,≤ 0.2
2,WKSG,≤ 0.2
3,LPHV,≤ 0.2
4,DIFR,≤ 0.2
5,SDSC,≤ 0.2
6,AHQV,≤ 0.2
7,QMEM,≤ 0.2
8,TDPA,≤ 0.2
9,ARGY,≤ 0.2
10,LMGI,≤ 0.2
11,HNSC,≤ 0.2
12,SWRR,≤ 0.2
13,GEDW,≤ 0.2
14,IRMT,≤ 0.2
15,QGQC,≤ 0.2
16,CSCC,≤ 0.2
17,GSAI,≤ 0.2
18,SVRL,≤ 0.2
